# Measurements taken from ChEMBL document CHEMBL4888484, “Replenishing the malaria drug discovery pipeline: Screening and hit evaluation of the MMV Hit Generation Library 1 (HGL1) against asexual blood stage Plasmodium falciparum ,using a nano luciferase reporter read-out” (2022).
# “And” between values parts separate entries of the source, which are not always exact repeats. Equal values may be shown once. Hit rate of the full screen: of about 150,000 compounds, about 540 (0.36%) showed an effect of 50% or more. Some of the results follow.
# Test system: Plasmodium falciparum
# Assay: Primary screen in NF54 nanoGlo assay, in single point, at 2uM, 72h; a lower Z score goes with more inhibition
# Format: functional, Erythrocyte
# Settings: timepoint 72 hour
Compound,% Inhibition,Z score,% Inhibition (2 µM)
CC(C(=O)N[C@@H](C#N)C(C)C)c1ccccc1 (some centres not stated),-11%,1.78,
O[C@@H]1C[C@H](O)C12CCN(c1ncc(Cl)cc1C(F)(F)F)CC2,-7%,1.16,
CC(C)(C)c1csc([C@@H]2CN(c3ccc4nncn4n3)CCO2)n1,4%,-0.64,
CN(Cc1cc[nH]n1)S(=O)(=O)N(C)C1CCCCC1,-11%,1.62,
Cc1cc(-n2c(C)cc(C(=O)Nc3cccc(S(=O)(=O)N4CCCCC4)c3)c2C)no1,-15%,2.07,
CCCNC(=O)CN1CCN(c2cc(C(=O)O)c3cc(NS(=O)(=O)c4cc(C)cc(C)c4)ccc3n2)CC1,-10%,1.83,
N#CC1(CCn2nc(CO)ccc2=O)CCCCC1,-9%,1.02,
CC(=O)NC(C)(C)CN(C)Cc1ccccc1,-9%,1.2,
CCN1CCN(Cc2nc(C)cc(-c3ccccc3)n2)C(=O)C1=O,-15%,1.85,
Cc1cc(C)cc(NC(=O)Cn2nc3c4cc(-c5ccc(F)cc5)nn4ccn3c2=O)c1,0%,-0.03,
COc1ccc(CCc2nc(-c3ccc(N4CCCCC4)cc3)no2)cc1,-4%,0.48,
CC1CCN(Cc2nnnn2CC(=O)N2CCc3[nH]nc(C(C)C)c3C2)CC1,-10%,1.27,
O=C(Nc1ccc(N2CCOCC2)cc1)c1cccc(S(=O)(=O)N2CCCCC2)c1,3%,-0.33,
O=S(=O)(NC1CCCCC1)c1ccc(Cl)c(S(=O)(=O)NC2CCCCC2)c1,39%,-5.08,
CC(C)NC(=O)CN1CCCCc2c(Cl)cccc21,-4%,0.42,
C[C@@H](Cc1ccccc1F)C(=O)N1CCC(Nc2cccnc2)CC1,5%,-0.96,
CC(C)C(=O)N[C@H]1CC12CCN(S(=O)(=O)c1ccc(F)cc1F)CC2,-6%,0.68,
Cn1ccnc1CCN1C(=O)CN(CCc2ccccc2)C1=O,-5%,0.65,
Cn1ccnc1[C@H]1CCN(C(=O)N[C@H]2CC[C@H](O)CC2)C1,5%,-0.52,
Cc1cc(C(F)(F)F)ccc1S(=O)(=O)Nc1ncn(Cc2ccncc2)n1,-7%,1.14,
COc1cccc(CN2CCC[C@@]3(CCN(C(=O)c4cc(C)n(C)n4)C3)C2)c1OC,-9%,1.17,
Cc1ccc(N2C(=O)c3ccccc3[C@H]2Nc2nc(C)cs2)nc1,33%,-4.4,
CC1(COc2cccc3ncoc23)COC1,-22%,4.37,
COCCCN1C(=O)CC(CC(=O)N2CCCC(C(=O)CC(C)C)C2)(c2ccccc2OC)C1=O (configuration not stated),-9%,1.13,
CC(=O)N1CC[C@H](NC(=O)Nc2nc3c(s2)CCCC3)C1,-4%,0.47,
COc1ccc(NC(=O)Cn2cncc(C(=O)NC3CC3)c2=O)cc1,-7%,1.22,
O=C(Cc1ccc(OC(F)F)cc1)NCc1ccc(C(=O)N2CCOCC2)cc1,-14%,1.9,

Compound,% Inhibition,Z score,% Inhibition (2 µM)
OCc1ccncc1NCc1csc(C(F)(F)F)n1,-17%,3.14,
CN1c2ccccc2C(=O)N[C@@H]1c1ccc2ccccc2c1,20%,-2.31,
CCc1nnc(-c2cc(S(=O)(=O)NCc3ccc4c(c3)OCO4)c[nH]2)o1,-7%,1.43,
Cn1ccc(NS(=O)(=O)c2cccc3c2N=S=N3)n1,-1%,0.06,
CC1(C)Cc2cccc(OCc3ccc(C(=O)N4CCN(c5ccccc5Cl)CC4)cc3)c2O1,0%,0.04,
C[C@H]1CCc2sc(C(=O)N3CCc4n[nH]cc4C3)cc2C1,-14%,2.79,
CO[C@@]1(C)C[C@@H](O)C12CCN(C(=O)CN(C)c1ccccc1)CC2,-31%,2.71,
Cc1cnc(NC(=O)c2nc(C)oc2-c2ccccc2)[nH]1,-10%,1.11,
O=C(Nc1ccc(OCc2ccccc2)cc1)NC1CCCCC1,-10%,1.19,
CN(C)C(=O)N(C)[C@H]1CCN(C(=O)c2cc(C#N)ccn2)C1,-8%,0.9,
COC1(C)CC(NC(=O)Nc2nccs2)C1(C)C (configuration not stated),-4%,0.37,
COCC1(C(=O)NCc2cscn2)CCC1,-6%,1.02,
CCOC(=O)n1c2ccccc2c2ccccc21,-3%,0.31,
CCN1CCc2c(c(CN(CC(C)C)C(=O)NC(C)(C)C)nn2-c2ccccc2OC)C1,-8%,1.07,
O=C1CCOc2cc(-c3cc[nH]n3)ccc21,3%,-0.47,
N#C[C@@H]1COCCN1C(=O)c1ccc2c(c1)CCCC2,4%,-0.74,
O[C@@H]1CCN(c2ncc(Cl)cc2F)C1,-7%,1,
CCn1c(C)cc(CN(C)c2ccnc(N(C)C)n2)c1C,-7%,0.93,
CC(C)(C)c1ccc(C(=O)N/C(=N/c2ccccc2)NCc2cccnc2)cc1,-7%,0.61,
COCc1nc(O)cc(N2CC[C@H](c3cnn(C)c3)C2)n1,-6%,1.16,
Cn1ncc2cc(-c3ccc(C(=O)NCC(=O)N4CCCC4)cc3)ccc21,-2%,0.32,
COc1cccc(CNS(=O)(=O)c2cc(-c3nc(C(C)C)cs3)sc2C)c1,-12%,1.52,
O=C1C[C@H](N2CCN(Cc3ccccc3)CC2)C(=O)N1c1ccc2c(c1)OCCO2,,,-16% and 2%
Cc1cc(C(=O)N[C@H]2CC[C@H]2NC2CCCCCC2)nc2[nH][nH]c(=O)c12,-18%,2.93,
Cc1cc(NCc2c(C)noc2C)nc(C2CC2)n1,-7%,1.22,
CN(C)CCN1CC2(CCC1=O)CCN(c1cc(C3CC3)ncn1)CC2,-11%,1.46,
Cc1noc(C)c1CC(=O)N1CCOC[C@@H](CO)C1,-22%,2,
